167 variants from the RNAGym collection of RNA variant scans (doi:10.1093/nar/gkz1192) can be followed below.

B1: CPEB3 Ribozyme (parent)
chain: UAACAGGGGGCCACAGCAGAAGCGUUCACGUCGCAGCCCCUGUCAGAUUCUGGUGAAUCUGCGAAUUCUGCUGUAUAUCUC

The source gives no read counts; variants with many changes may rest on few reads.

In the series the parent is B1. The experiment in a line: self-cleavage, relative activity (ratio to wild type); higher = more cleavage; in vitro, sequencing. The essentials:
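For each CPEB3 ribozyme variant, relative activity is its cleaved/total read fraction divided by the unmutated ribozyme's. Barcoded error-prone PCR libraries were transcribed by T7 RNA polymerase (5 hours, 37°C) and held in DNase I for 15 min before an EDTA stop, with cleavage occurring throughout. Template-switching reverse transcription and Illumina sequencing were used to read the RNAs. A 5-read minimum applied, and results are the mean of three batches.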
On to A13G U48C U58C, for which the self-cleavage stood at 0.52.
With A13U U48C U51C G61C the figure was 0.16.
With A13U A28G U31C U72A U78C, the self-cleavage was found to be 0.1.
With A13U U43A U69A the figure was 1.
Consider A13G U26G U74C, for which the self-cleavage came to 0.23.
For A13U U43A U58C A64U the value was 0.23.
Turning to A13U G33U U66C, the self-cleavage is 0.16.
Regarding A13U C37U G52A C62A, the self-cleavage was determined as 0.17.
Turning to A13U U31A C32A A35G A64G U74A A75U, the self-cleavage turned out to be 0.23.
For A13U A56G U58C the value was 0.21.
In the case of A13U A28G C37U A45G A65G U72A U80C, the self-cleavage came to 0.05.
Consider A13U U41C U60C G70A U80A, for which the self-cleavage was determined as 0.46.
A13G U76C U78C: the self-cleavage stood at 1.13.
With A13U U26C C40A A56G, the self-cleavage stood at 0.29.
For A13G U31C U69C the value was 0.12; for A13U U41C A47G A65U, 0.51; for A13U U60G U72C, 0.21.
For A13G U58C U80C the value was 0.43; for A13G U58C U80A, 0.4.
For A13G U41C A56G U80C the value was 0.84.
Take A13U U31A U51A: the self-cleavage was 0.6.
For A13U G24C C34G U78C the value was 0.13.
With A13U A45G U49C U60A A64C the figure was 0.1.
Take A13U A15U A35U: the self-cleavage stood at 0.38.
In the case of A13U C38U U49A C50U, the self-cleavage stood at 0.44.
For A13U U43C U48C A56U U58C U69A U74C the value was 0.06; for A13U A21G U48C U49C U80C, 0.07.
Turning to A13G U31A A64G, the self-cleavage is 0.24.
Take A13G U60C G70A U80A: the self-cleavage worked out at 0.21.
For A13U A28U U60C A64G the value was 0.37.
For A13U U41C A45G U74C, the self-cleavage is 1.15.
Turning to A13U C29G U58C U69C, the self-cleavage was 0.14.
With A13U G46U U49C A65G, the self-cleavage was determined as 0.09.
Regarding A13G U48C U51C U80C, the self-cleavage worked out at 0.4.
With A13U A75G C79U the figure was 1.26; with A13U U31A U69C U72A, 0.14; with A13U A21G G30A A47U, 0.12.
Take A13U A28C U51C U78C: the self-cleavage was determined as 0.63.
For A13U A15G U31C C32U U60C U67C the value was 0.04; for A13U A21G U51C U60C, 0.11.
With A13G U41G A57G the figure was 0.37.
As to A13U A28G U69A U76A, the self-cleavage worked out at 0.13.
For A13U U72A U78A the value was 1.12; for A13G U26C U72A A75G, 0.12; for A13U U54A U60C, 0.66.
Regarding A13U A35G C40G A57G U58A A64G G70U, the self-cleavage was 0.03.
In the case of A13U A15U U31A U80A, the self-cleavage was found to be 0.45.
With A13U U58A U78G, the self-cleavage amounted to 0.46.
Consider A13U A15C A21G U41C A56U U67C U72C, for which the self-cleavage turned out to be 0.14.
Take A13U U25C U49C: the self-cleavage is 0.07.
With A13U A18U U43C the figure was 0.16; with A13U U51A U60A A75U, 1.09; with A13U A18U U26C A28U, 0.1.
For C14A A15G A47G A56G U60C the value was 0.33; for A13U U25C U26A U43A U60C, 0.09; for A13U A18G A45G C62A, 0.35.
With A13U U25G U54G U58C U67C U78C the figure was 0.13; with A13U G22A U49A U51C, 0.09; with A13U U51C U60C, 0.38.
Regarding A13U U26C A56G U80C, the self-cleavage worked out at 0.37.
On to A13G U41A C62U U72G, for which the self-cleavage amounted to 0.11.
For A13U U26C C32U A57G the value was 0.06.
For A13G U54C A65G, the self-cleavage amounted to 0.25.
In the case of A13U A20G G22C U41A A45U U54A, the self-cleavage turned out to be 0.09.
With A13U A15U A45U U80A the figure was 0.26.
Take A13G U48C U51C G52A A64G U69C: the self-cleavage turned out to be 0.12.
For A13U A15U A56U A75U the value was 0.21.
With A13G U43C U72A the figure was 0.26.
For the variant A13G U48C G53A A65G, the self-cleavage is 0.19.
For A13U C23U U31C A45C A64G U72A the value was 0.08.
With A13U A35U G55C A57G the figure was 0.09; with A13U U26C C27A U31A C34G C40U U66C, 0.05.
For A13U U31C A56G G63C U78C the value was 0.94; for A13U A18G C40A U43A U66A A75U, 0.11; for A13U U26C U60G, 0.18.
A13U A18G U49C A65G A77U: the self-cleavage is 0.4.
For A13U U26C A45U A65G the value was 0.07; for A13G U60C U74G, 0.7; for A13G U60C U74C, 0.32.
With A13G U41A A56G A64U the figure was 0.22; with A13U U25C U31C A35G U54C, 0.22.
For the variant A13U A65G U67C, the self-cleavage came out at 0.23.
With A13G U31A U60G C62G the figure was 0.11; with A13U A20U U26C A35G, 0.31; with A13U A18G U26A C62U, 0.16.
As to A13U A21U U54C U67C A75G, the self-cleavage was determined as 0.07.
For A13G U41A U49C A56U U78C the value was 0.15.
For A13U A20G U31A U72C the value was 0.26.
With A13U A15G A56G A57G U72G the figure was 0.21.
Consider A13U A21G U54A A75G, for which the self-cleavage amounted to 0.36.
On to A13U A45C U54C, for which the self-cleavage stood at 0.39.
For A13G U26C U43C the value was 0.56.
For A13U U67A C68U, the self-cleavage is 0.43.
On to A13G U41C A47G, for which the self-cleavage was determined as 0.52.
Turning to A13U A20G A35G U49C U51A U58C U80C, the self-cleavage turned out to be 0.63.
For C14A A15G A20G U49C A64G A77U the value was 0.19; for A13U U25A U54A U66C, 0.16.
With A13U A28G U72C the figure was 0.69; with A13U U25C U26C, 0.03; with A13U A15U A28U C59A, 0.07.
For A13G U26C U41G A56G the value was 0.32; for A13U U26C U69A, 0.13.
Consider A13G U26C C29U U49C A64U, for which the self-cleavage worked out at 0.13.
With A13U U26C C29U U51C the figure was 0.3; with A13G U58C U72G, 0.07; with A13U A28G C50A U80C, 0.61.
For A13U A18G U41A A47G G52A U80G the value was 0.58; for A13U A20G A47G, 0.95.
With A13U A47G A65U U72A the figure was 0.3.
For A13U A28G C37U A45G U51A A64G, the self-cleavage was found to be 0.09.
For A13U C38A U60A A75U the value was 0.13; for A13G U31C A65U, 0.17.
For A13U U41C U51A the value was 0.95; for A13G U41C G63U, 0.81.
With A13U U66A U78A the figure was 0.62; with A13U U31C A45U A77U, 0.44.
A13U A21G G42A A56G A57G U58C C68A: the self-cleavage worked out at 0.09.
As for A13U A20G U25C U43C A57G U80C, the self-cleavage was found to be 0.06.
With A13U U54C A57G the figure was 1.05; with A13U G24C A56G U60A, 0.12; with A13U U43C U60C, 0.1.
For A13G U43A U54A A57G A64G the value was 0.65.
On to A13U G33A U69C U80C, for which the self-cleavage stood at 0.16.
Take A13U U43C U51C A64U U76C: the self-cleavage was determined as 0.22.
With A13U A28U A35U U41C A75U the figure was 0.5.
With A13U U48A U54C U76C the figure was 0.4; with C14A A15G A64G, 1.26.
For A13U A28G A57G U80A the value was 0.35.
For A13G U49C U67A, the self-cleavage was 0.15.
With A13U U54C A64U U78G the figure was 0.36; with A13G U60C U72G, 0.19; with A13U C38U U78C, 1.15.
As to A13U U26C G33A, the self-cleavage was 0.23.
For A13U A20G U25C U43C A45G U69A the value was 0.1; for A13G U51A U66C U67C, 0.06.
For the variant A13U U67A U76C, the self-cleavage stood at 0.98.
For A13U C27A A57G U67A the value was 0.12; for A13U U31A A35U U41A U43C U78C, 0.13; for A13U A18U U25C U49C, 0.03.
For A13U G19A G52U G53A A64U the value was 0.08.
For A13U G19U A21G A28G the value was 0.08; for A13G U31C U41C U49C A65G C79U, 0.03; for A13U U25C U31C U80A, 0.09.
For A13G U41C U51G U54C, the self-cleavage was 0.37.
For A13G U58A U69A the value was 0.13.
For the variant A13U A15U A18G U72C, the self-cleavage is 0.35.
In the case of A13U U67C A77G, the self-cleavage worked out at 0.24.
For A13U U31A A56C the value was 0.47; for A13U A28G A35U U51C U58A U78C, 0.08; for A13U A28U U31C U78C, 0.68.
A13U A28G U51C G63A A65G C81U: the self-cleavage was 0.23.
For A13U C17G U31A A45U G73A the value was 0.13; for A13U A20G C34U G63U U69C, 0.1.
For A13U A15G A21G U60A the value was 0.14; for A13U U66C C68A, 0.38; for A13U G63U U72G, 0.91.
For C14A A15G A45U U72A the value was 0.2; for A13U A15G A65G U76C, 0.5.
A13U U67A C79A: the self-cleavage worked out at 0.67.
For A13U A56U U60C the value was 0.17.
For A13U U43C U49C A56G A64U U66C U72C the value was 0.13.
For A13U C39G U41C U51C the value was 0.31.
Take A13U U25C U26C U72A: the self-cleavage was determined as 0.04.
With A13U U43A U67G U80C C81U, the self-cleavage stood at 0.7.
With A13U C17A A21G the figure was 0.16; with A13U U60C U66C C79U, 0.23; with A13U A57G U80A, 1.12.
